# The supplement of paper PMC12423691
# This is one part of the list. Binding of human transcription factors and regulators to the viral nucleoprotein by AlphaScreen, crude cell-free proteins, amounts not normalised, one pass. Fold of the Venus control; higher = more signal. No active / inactive call. Single-pass screen; sequences are the whole Swiss-Prot entries looked up by name.
# B1: TADA3, O75528 (protein)
# chain: MSELKDCPLQFHDFKSVDHLKVCPRYTAVLARSEDDGIGIEELDTLQLELETLLSSASRRLRVLEAETQILTDWQDKKGDRRFLKLGRDHELGAPPKHGKPKKQKLEGKAGHGPGPGPGRPKSKNLQPKIQEYEFTDDPIDVPRIPKNDAPNRFWASVEPYCADITSEEVRTLEELLKPPEDEAEHYKIPPLGKHYSQRWAQEDLLEEQKDGARAAAVADKKKGLMGPLTELDTKDVDALLKKSEAQHEQPEDGCPFGALTQRLLQALVEENIISPMEDSPIPDMSGKESGADGASTSPRNQNKPFSVPHTKSLESRIKEELIAQGLLESEDRPAEDSEDEVLAELRKRQAELKALSAHNRTKKHDLLRLAKEEVSRQELRQRVRMADNEVMDAFRKIMAARQKKRTPTKKEKDQAWKTLKERESILKLLDG
# B2: ATF3, P18847 (protein)
# chain: MMLQHPGQVSASEVSASAIVPCLSPPGSLVFEDFANLTPFVKEELRFAIQNKHLCHRMSSALESVTVSDRPLGVSITKAEVAPEEDERKKRRRERNKIAAAKCRNKKKEKTECLQKESEKLESVNAELKAQIEELKNEKQHLIYMLNLHRPTCIVRAQNGRTPEDERNLFIQQIKEGTLQS
# B3: SMAD7, O15105 (protein)
# chain: MFRTKRSALVRRLWRSRAPGGEDEEEGAGGGGGGGELRGEGATDSRAHGAGGGGPGRAGCCLGKAVRGAKGHHHPHPPAAGAGAAGGAEADLKALTHSVLKKLKERQLELLLQAVESRGGTRTACLLLPGRLDCRLGPGAPAGAQPAQPPSSYSLPLLLCKVFRWPDLRHSSEVKRLCCCESYGKINPELVCCNPHHLSRLCELESPPPPYSRYPMDFLKPTADCPDAVPSSAETGGTNYLAPGGLSDSQLLLEPGDRSHWCVVAYWEEKTRVGRLYCVQEPSLDIFYDLPQGNGFCLGQLNSDNKSQLVQKVRSKIGCGIQLTREVDGVWVYNRSSYPIFIKSATLDNPDSRTLLVHKVFPGFSIKAFDYEKAYSLQRPNDHEFMQQPWTGFTVQISFVKGWGQCYTRQFISSCPCWLEVIFNSR
# B4: GABPA, Q06546 (protein)
# chain: MTKREAEELIEIEIDGTEKAECTEESIVEQTYAPAECVSQAIDINEPIGNLKKLLEPRLQCSLDAHEICLQDIQLDPERSLFDQGVKTDGTVQLSVQVISYQGIEPKLNILEIVKPADTVEVVIDPDAHHAESEAHLVEEAQVITLDGTKHITTISDETSEQVTRWAAALEGYRKEQERLGIPYDPIQWSTDQVLHWVVWVMKEFSMTDIDLTTLNISGRELCSLNQEDFFQRVPRGEILWSHLELLRKYVLASQEQQMNEIVTIDQPVQIIPASVQSATPTTIKVINSSAKAAKVQRAPRISGEDRSSPGNRTGNNGQIQLWQFLLELLTDKDARDCISWVGDEGEFKLNQPELVAQKWGQRKNKPTMNYEKLSRALRYYYDGDMICKVQGKRFVYKFVCDLKTLIGYSAAELNRLVTECEQKKLAKMQLHGIAQPVTAVALATASLQTEKDN
# B5: MEF2B, Q02080 (protein)
# chain: MGRKKIQISRILDQRNRQVTFTKRKFGLMKKAYELSVLCDCEIALIIFNSANRLFQYASTDMDRVLLKYTEYSEPHESRTNTDILETLKRRGIGLDGPELEPDEGPEEPGEKFRRLAGEGGDPALPRPRLYPAAPAMPSPDVVYGALPPPGCDPSGLGEALPAQSRPSPFRPAAPKAGPPGLVHPLFSPSHLTSKTPPPLYLPTEGRRSDLPGGLAGPRGGLNTSRSLYSGLQNPCSTATPGPPLGSFPFLPGGPPVGAEAWARRVPQPAAPPRRPPQSASSLSASLRPPGAPATFLRPSPIPCSSPGPWQSLCGLGPPCAGCPWPTAGPGRRSPGGTSPERSPGTARARGDPTSLQASSEKTQQ
# B6: BTRC, Q9Y297 (protein)
# chain: MDPAEAVLQEKALKFMCSMPRSLWLGCSSLADSMPSLRCLYNPGTGALTAFQNSSEREDCNNGEPPRKIIPEKNSLRQTYNSCARLCLNQETVCLASTAMKTENCVAKTKLANGTSSMIVPKQRKLSASYEKEKELCVKYFEQWSESDQVEFVEHLISQMCHYQHGHINSYLKPMLQRDFITALPARGLDHIAENILSYLDAKSLCAAELVCKEWYRVTSDGMLWKKLIERMVRTDSLWRGLAERRGWGQYLFKNKPPDGNAPPNSFYRALYPKIIQDIETIESNWRCGRHSLQRIHCRSETSKGVYCLQYDDQKIVSGLRDNTIKIWDKNTLECKRILTGHTGSVLCLQYDERVIITGSSDSTVRVWDVNTGEMLNTLIHHCEAVLHLRFNNGMMVTCSKDRSIAVWDMASPTDITLRRVLVGHRAAVNVVDFDDKYIVSASGDRTIKVWNTSTCEFVRTLNGHKRGIACLQYRDRLVVSGSSDNTIRLWDIECGACLRVLEGHEELVRCIRFDNKRIVSGAYDGKIKVWDLVAALDPRAPAGTLCLRTLVEHSGRVFRLQFDEFQIVSSSHDDTILIWDFLNDPAAQAEPPRSPSRTYTYISR
# B7: EBF2, Q9HAK2 (protein)
# chain: MFGIQDTLGRGPTLKEKSLGAEMDSVRSWVRNVGVVDANVAAQSGVALSRAHFEKQPPSNLRKSNFFHFVLALYDRQGQPVEIERTAFVDFVENDKEQGNEKTNNGTHYKLQLLYSNGVRTEQDLYVRLIDSVTKQPIAYEGQNKNPEMCRVLLTHEVMCSRCCEKKSCGNRNETPSDPVIIDRFFLKFFLKCNQNCLKTAGNPRDMRRFQVVLSTTVNVDGHVLAVSDNMFVHNNSKHGRRARRLDPSEATPCIKAISPSEGWTTGGAMVIIIGDNFFDGLQVVFGTMLVWSELITPHAIRVQTPPRHIPGVVEVTLSYKSKQFCKGAPGRFIYTALNEPTIDYGFQRLQKVIPRHPGDPERLAKEMLLKRAADLVEALYGTPHNNQDIILKRAADIAEALYSVPRNPSQLPALSSSPAHSGMMGINSYGSQLGVSISESTQGNNQGYIRNTSSISPRGYSSSSTPQQSNYSTSSNSMNGYSNVPMANLGVPGSPGFLNGSPTGSPYGIMSSSPTVGSSSTSSILPFSSSVFPAVKQKSAFAPVIRPQGSPSPACSSGNGNGFRAMTGLVVPPM
# Molecular target: nucleoprotein N of Crimean-Congo hemorrhagic fever virus
# Experiment: AlphaScreen luminescence signal relative to Venus negative control (fold); higher = stronger binding to CCHFV N
# Protocol: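 AlphaScreen binding of cell-free made, FLAG-GST-tagged human transcription factors and regulators (crude translation products) to biotinylated N protein; signal as fold of the FLAG-GST-Venus control. One pass.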
row,Binder,AlphaScreen luminescence signal
1,B1,2
2,B2,2.51
3,B3,2.28
4,B4,2.28
5,B5,3.67
6,B6,3.44
7,B7,2.84
